# In PubChem BioAssay AID588342 (National Center for Advancing Translational Sciences (NCATS), 2011):
# The whole screen tested about 360,000 compounds, of which about 25,000 (6.9%) were called active. Inconclusive results, whose numbers are uncertain, are shown with a selection of clear calls. The call rests on the fitted dose curve; in most records, active means well fitted inhibition curve with a large enough effect; inconclusive means small, poorly fitted or top-dose-only effect; inactive means flat fitted curve, though single readings scatter. A potency beside an inconclusive call is a rough fit, not a confirmed value.
# Biological target: Luciferin 4-monooxygenase (Photinus pyralis) (UniProt P08659)
# Assay: qHTS profiling assay for firefly luciferase inhibitor/activator using purifed enzyme and Km concentrations of substrates (counterscreen for miR-21 project); further: nearly all actives have a fitted effect of over 55% in size
# Conditions: purified FLuc, luminescence inhibition; series mostly up to 57.5 µM
# Summary of the method: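 Purified P. pyralis luciferase, 10 nM final, with Km-level 10 uM D-luciferin and 10 uM ATP in 50 mM Tris acetate pH 7.5, 10 mM Mg acetate, 0.01% Tween-20, 0.05% BSA; 6-point qHTS titration about 60 µM downward; luminescence read.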
# Potency means the concentration at half of the fitted maximal effect; tags describe the fitted curve by direction and shape.
# UniProt P08659, sequence (P08659 whole entry, looked up): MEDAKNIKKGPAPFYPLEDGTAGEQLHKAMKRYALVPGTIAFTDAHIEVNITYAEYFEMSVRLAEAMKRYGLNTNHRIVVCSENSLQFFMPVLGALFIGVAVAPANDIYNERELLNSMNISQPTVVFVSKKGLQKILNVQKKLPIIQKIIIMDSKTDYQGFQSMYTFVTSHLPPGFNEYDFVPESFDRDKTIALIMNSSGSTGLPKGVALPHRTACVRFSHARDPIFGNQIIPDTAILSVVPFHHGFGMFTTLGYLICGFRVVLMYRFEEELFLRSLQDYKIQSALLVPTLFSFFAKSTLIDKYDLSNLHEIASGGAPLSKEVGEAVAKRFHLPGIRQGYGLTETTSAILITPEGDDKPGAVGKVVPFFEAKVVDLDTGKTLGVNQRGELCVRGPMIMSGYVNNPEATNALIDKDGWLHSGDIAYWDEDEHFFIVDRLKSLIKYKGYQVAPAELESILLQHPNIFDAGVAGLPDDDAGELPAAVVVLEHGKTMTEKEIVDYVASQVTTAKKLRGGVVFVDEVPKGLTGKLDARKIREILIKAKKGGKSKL
row,Structure (SMILES),Potency
1,O=C(N1CCOCC1)C1(c2ccc(Cl)cc2)CCCC1,"inconclusive: 37.9 µM [inhibitor, partial curve, poor fit]"
2,COc1ccc2nc(NC(=O)CSc3nnc(-c4ccoc4C)n3C)sc2c1,active: 2.69 µM
3,O=C(/C=C/c1cccc([N+](=O)[O-])c1)NC(=S)Nc1ccccc1C(=O)O,"inconclusive: 16.9 µM [inhibitor, partial curve]"
4,CCN(CC)C(=O)C1CCCN(c2ncnc3c2cnn3-c2cccc(C)c2)C1 (stereo not drawn),"inconclusive: 13.5 µM [inhibitor, partial curve]"
5,Cn1c(SCC(=O)Nc2ccc(N3CCOCC3)cc2)nnc1-c1ccco1,active: 16.9 µM
6,O=C1c2ccccc2C(=O)N1CC(O)COc1ccc(Br)cc1 (stereo not drawn),"inconclusive: 23.9 µM [inhibitor, single point]"
7,Cc1ccc(Cl)cc1NS(=O)(=O)c1ccc2c(c1)NC(=O)CCS2,"inconclusive: 16.9 µM [inhibitor, partial curve, poor fit]"
8,CCOC(=O)c1c(CN2CCOCC2)oc2ccc(OC)cc12,inactive
9,Oc1ccc(C=Nc2ccc3ncccc3c2)c(O)c1,"inconclusive: 23.9 µM [inhibitor, single point]"
10,Cc1ccc(/C=N/NC(=O)CNC(=O)c2cccs2)cc1,active: 15.1 µM
11,CCC(C)NC(=O)c1ccccc1NC(=O)Nc1ccccc1 (stereo not drawn),"inconclusive: 3.79 µM [inhibitor, full curve]"
12,Cc1c(C(=O)NNC(=O)c2ccncc2)oc2ccc(Br)cc12,"inconclusive: 26.9 µM [inhibitor, single point]"
13,O=C(CCCOc1ccccc1)N1CCN(c2ccccc2)CC1,active: 9.53 µM
14,O=c1[nH]c2cc3c(cc2cc1CN(Cc1cccnc1)C(=S)NCc1ccco1)OCCO3,"inconclusive: 26.9 µM [inhibitor, single point]"
15,OC(COc1ccc2cc(Br)ccc2c1)CN1CCOCC1 (stereo not drawn),"inconclusive: 42.6 µM [inhibitor, partial curve, poor fit]"
16,O=C(O)c1ccc(N/N=C/c2ccnc3ccccc23)cc1,active: 1.35 µM
17,COc1cc(/C=N/NC(=O)c2ccc(=O)[nH]n2)ccc1O,inactive
18,O=S(=O)(Nc1ncccn1)c1ccc(NC(=S)NCCc2ccc(Cl)cc2)cc1,"inconclusive: 26.9 µM [inhibitor, partial curve, poor fit]"
19,CCn1ccnc1C(O)c1ccccc1OC (stereo not drawn),"inconclusive: 8.49 µM [inhibitor, partial curve, poor fit]"
20,COC(=O)c1c(C)[nH]c(C=Nc2ccc(OC)cc2)c1C,active: 7.57 µM
21,O=C(O)CCc1nc(-c2ccccc2)c(-c2ccccc2)o1,"inconclusive: 10.7 µM [inhibitor, partial curve]"
22,Cc1cccc(C)c1NC(=O)C1=C(O)c2sccc2N(C)S1(=O)=O,"inconclusive: 37.9 µM [inhibitor, partial curve, poor fit]"
23,COC(=O)CCc1c(C)nn(-c2ccccc2)c1C,"inconclusive: 23.9 µM [inhibitor, partial curve, poor fit]"
24,COc1ccc2c(c1OC)C(=O)N(c1ccc(F)cc1)C2,active: 8.49 µM
25,Cn1nc(N)nc1N1CCN(c2ccc(F)cc2)CC1,inactive

row,Structure (SMILES),Potency
1,CCOC(=O)c1cccc(NC(=O)c2cnc3ccccc3n2)c1,active: 16.9 µM
2,CCCCOc1ccc(C(=O)NCCc2csc(-c3cccc(F)c3)n2)cc1,"inconclusive: 30.1 µM [inhibitor, single point]"
3,NC(=O)C1CCN(CC(=O)Nc2ccccc2C(=O)NC2CC2)CC1,inactive
4,CC(=O)c1ccc(N(C(=O)c2csnn2)C(C(=O)NC(C)(C)C)c2cccs2)cc1 (stereo not drawn),inactive
5,Nc1nnc(SCc2ccc(F)cc2)n1-c1ccccc1,"inconclusive: 7.57 µM [inhibitor, partial curve, poor fit]"
6,COc1cc(/C=N/NC2=NCCCCC2)ccc1O,inactive
7,COc1ccc(S(=O)(=O)NCCC(=O)N2CCCC2)cc1N(C)S(C)(=O)=O,inactive
8,CCCN1CCN(C(=O)c2cc3c(s2)-c2ccccc2OC3)CC1,active: 7.57 µM
9,Cc1c([C@@H]2C[C@H]3CN(Cc4cccc(Cl)c4)C(=O)[C@]34CCCN24)cnn1C,"inconclusive: 21.3 µM [inhibitor, partial curve, poor fit]"
10,N#CCc1cc2ccc3cccc4ccc(c1)c2c34,"inconclusive: 26.9 µM [inhibitor, single point]"
11,Cc1ccc(CNC(=O)c2ccc3c(c2)c(C)c(C)n3Cc2ccccc2)o1,"inconclusive: 37.9 µM [inhibitor, partial curve, poor fit]"
12,NS(=O)(=O)c1ccc(NC(=O)c2ccc(-c3ccccc3)cc2)cc1,inactive
13,Cc1cccc(C(=O)Nc2ccc(-c3nc4ncccc4o3)cc2C)c1,inactive
14,CC(C)OCCCNC(=O)c1cn(C)c2ccc(S(=O)(=O)N3CCCCCC3)cc2c1=O,inactive
15,Cc1c2cnn(CC(=O)NCC(C)c3ccccc3)c(=O)c2c(C)n1Cc1cccc(Cl)c1 (stereo not drawn),inactive
16,CCOc1cc(/C=C2\SC(=S)N(C(C(=O)O)c3ccccc3)C2=O)ccc1O (stereo not drawn),"inconclusive: 21.3 µM [inhibitor, single point]"
17,CCOC(=O)/C(C#N)=C/c1c[nH]c2ccccc12,active: 19 µM
18,COc1ccccc1NC(=O)CSc1nc2ccccc2n1C(C)=O,"inconclusive: 21.3 µM [inhibitor, partial curve, poor fit]"
19,O=C(O)CSc1ncnc2c1sc1nc(-c3ccccc3)c3c(c12)CCC3,active: 10.7 µM
20,COc1cc(/C=N/NC(=O)/C(=C\c2ccc3c(c2)OCO3)NC(=O)c2ccccc2)ccc1O,"inconclusive: 5.36 µM [inhibitor, partial curve]"
21,CCN1CCN(c2nnc(-c3ccc(C)cc3)c3ccccc23)CC1,inactive
22,COc1ccc2c(COC(=O)CC3Sc4ccccc4NC3=O)cc(=O)oc2c1 (stereo not drawn),"inconclusive: 26.9 µM [inhibitor, partial curve, poor fit]"
23,CCOc1cc(C(=O)NCc2ccc3c(c2)CCN3C(=O)c2ccc(F)cc2)cc(OCC)c1OCC,"inconclusive: 6.75 µM [inhibitor, partial curve, poor fit]"
24,N#Cc1ccccc1OCC(=O)N1N=C(c2cccs2)CC1c1ccco1 (stereo not drawn),"inconclusive: 15.1 µM [inhibitor, partial curve]"
25,O=C1c2ccccc2C(=O)C1c1ccccc1,"inconclusive: 37.9 µM [inhibitor, partial curve, poor fit]"

row,Structure (SMILES),Potency
1,COc1ccc(OCC(=O)N2CCC(c3nc4ccccc4s3)CC2)cc1,"inconclusive: 16.9 µM [inhibitor, partial curve, poor fit]"
2,COc1ccc(-c2nc(SC)n(C(=O)c3ccco3)n2)cc1,"inconclusive: 19 µM [inhibitor, single point]"
3,Cn1ncc(Cl)c1C(=O)Nc1nc2ccc(Cl)cc2s1,active: 2.13 µM
4,Cc1ccccc1Cn1nnc(C(=O)Nc2cccc(C)c2C)c1N,"inconclusive: 26.9 µM [inhibitor, partial curve, poor fit]"
5,CN(CC(=O)NCCc1ccccc1)S(=O)(=O)c1ccc(Br)s1,inactive
6,O=C(CSc1nc2nc(-c3cccs3)cc(C(F)(F)F)c2c(=O)[nH]1)Nc1c(F)c(F)c(F)c(F)c1F,"inconclusive: 23.9 µM [inhibitor, single point]"
7,CCCC(=O)Nc1ccc2oc(-c3ccc(O)c(Br)c3)nc2c1,active: 2.39 µM
8,CC(C)c1ccc(NC(=O)c2ccc(=O)n(Cc3ccccc3)c2)cc1,"inconclusive: 30.1 µM [inhibitor, partial curve, poor fit]"
9,COc1cc2oc3ccccc3c(=O)c2cc1OC,"inconclusive: 19 µM [inhibitor, partial curve]"
10,Cc1cc(NC(=O)CSc2nc3ccsc3c(=O)n2Cc2ccccn2)n[nH]1,inactive
11,COc1cccc(C2C(C(N)=O)=C(C)Nc3ncnn32)c1 (stereo not drawn),inactive
12,COc1ccc(OC)c(NC(=O)C2=C(C)C(=O)OC23CCN(C(C)C)CC3)c1,inactive
13,O=C(CO/N=C/c1ccc(OC(F)F)cc1)NCc1ccc(F)cc1,inactive
14,O=C(CSc1nc2c(oc3ccccc32)c(=O)n1-c1ccccc1)Nc1ccc(F)c(Cl)c1,inactive
15,COc1ccc(C2CC(=O)N(CC(=O)NCC3CCCO3)c3ccccc3S2)cc1 (stereo not drawn),"inconclusive: 26.9 µM [inhibitor, partial curve, poor fit]"
16,CCOc1ccc(-c2noc(CCC(=O)O)n2)cc1,active: 12 µM
17,Cc1cccn2c(=O)c(C(=O)N3CCN(c4ccccc4)CC3)cnc12,inactive
18,CN(c1ccc(O)cc1)c1nc(-c2cccnc2)cs1,active: 4.78 µM
19,COC(=O)c1ccc(Nc2nc3ccc(C)cc3n3cnnc23)cc1,"inconclusive: 26.9 µM [inhibitor, partial curve, poor fit]"
20,Cc1nnc(NC(=O)c2ccccc2NC(=O)c2ccccc2)s1,active: 8.49 µM
21,O=C(CSc1nnc(-c2ccco2)n1-c1ccccc1Cl)Nc1cccc(C(=O)O)c1,inactive
22,Cc1nc2nc(NCc3ccc(Br)cc3)[nH]n2c(=O)c1Cc1ccccc1,"inconclusive: 30.1 µM [inhibitor, partial curve, poor fit]"
23,COc1ccc(N(CC(=O)NCCc2ccc(Cl)cc2)S(=O)(=O)c2c(C)[nH]c(=O)[nH]c2=O)cc1,"inconclusive: 16.9 µM [inhibitor, partial curve, poor fit]"
